Experimental data as given in the antibiotic and cytotoxicity screens of Wong et al. (2023).
This is one part of the list.

Key:
HSkMC = human skeletal muscle cells; test: cytotoxicity call (relative viability < 0.9); settings: 10 µM
HepG2 = test: cytotoxicity call (relative viability < 0.9); settings: 10 µM
S. aureus RN4220 = test: growth inhibition call (relative growth <= 0.2); settings: 50 µM

In the case of `C[C@@H]1CN([C@@H](C)CO)C(=O)c2cccc(NC(=O)c3ccc(-c4nccs4)cc3)c2O[C@H]1CN(C)Cc1ccc(C(=O)Nc2ccccc2N)cc1`, the cytotoxicity call (HSkMC) is reported as “inactive”, the cytotoxicity call (HepG2) is reported as “inactive” and the growth inhibition call (S. aureus RN4220) is reported as “inactive”.

`COCC#Cc1ccc2c(c1)O[C@H](CN(C)C(=O)Nc1ccc(OC)cc1)[C@@H](C)CN([C@@H](C)CO)S2(=O)=O` was tested, and the cytotoxicity call (HSkMC) was “inactive”, the cytotoxicity call (HepG2) was “inactive” and the growth inhibition call (S. aureus RN4220) was “inactive”.

In the case of `COCC(=O)Nc1ccc2c(c1)C(=O)N(C)C[C@@H](OC)[C@H](C)CN(C(=O)CN1CCOCC1)[C@H](C)CO2`, the cytotoxicity call (HSkMC) is reported as “inactive”, the cytotoxicity call (HepG2) is reported as “inactive” and the growth inhibition call (S. aureus RN4220) is reported as “inactive”.

For `COc1ccc(NC(=O)N(C)C[C@H]2OCCCC[C@@H](C)Oc3ccc(NC(=O)Nc4ccccc4)cc3C(=O)N([C@H](C)CO)C[C@H]2C)cc1`, the cytotoxicity call (HSkMC) was “inactive”, the cytotoxicity call (HepG2) was “inactive” and the growth inhibition call (S. aureus RN4220) was “inactive”.

In the case of `C[C@H]1CN([C@@H](C)CO)C(=O)c2cc(NC(=O)CCC(F)(F)F)ccc2O[C@H]1CN(C)C(=O)Nc1cccc2ccccc12`, the cytotoxicity call (HSkMC) is reported as “inactive”, the cytotoxicity call (HepG2) is reported as “inactive” and the growth inhibition call (S. aureus RN4220) is reported as “inactive”.

For `C[C@@H]1CCCCO[C@@H](CN(C)S(=O)(=O)c2ccc(Cl)cc2)[C@H](C)CN([C@H](C)CO)C(=O)c2cc(NC(=O)Nc3ccc(F)cc3)ccc2O1`, the cytotoxicity call (HSkMC) was “inactive”, the cytotoxicity call (HepG2) was “active” and the growth inhibition call (S. aureus RN4220) was “inactive”.

For `CCOC(=O)CCC(=O)O[C@H]1[C@H](O[C@@H]2[C@@H](C)[C@H](O[C@H]3C[C@@](C)(OC)[C@@H](O)[C@H](C)O3)[C@@H](C)C(=O)O[C@H](CC)[C@@](C)(O)[C@H](O)[C@@H](C)C(=O)[C@H](C)C[C@@]2(C)O)O[C@H](C)C[C@@H]1N(C)C`, the cytotoxicity call (HSkMC) was “inactive”, the cytotoxicity call (HepG2) was “inactive” and the growth inhibition call (S. aureus RN4220) was “active”.

With `Cn1cc(CN2CCC3(CC2)CNC(=O)CO3)cn1` the cytotoxicity call (HSkMC) was “inactive”, the cytotoxicity call (HepG2) was “inactive” and the growth inhibition call (S. aureus RN4220) was “inactive”.

For `C[C@H]1CN([C@@H](C)CO)C(=O)Cc2cc(NC(=O)Nc3ccc(C(F)(F)F)cc3)ccc2O[C@@H]1CN(C)CC1CCCCC1`, the cytotoxicity call (HSkMC) was “active”, the cytotoxicity call (HepG2) was “inactive” and the growth inhibition call (S. aureus RN4220) was “inactive”.

With `O=C(O)[C@H]1CCCC[C@H]1C(=O)N1CCc2ccccc2[C@H]1CNS(=O)(=O)c1ccc([N+](=O)[O-])cc1` the cytotoxicity call (HSkMC) was “inactive”, the cytotoxicity call (HepG2) was “inactive” and the growth inhibition call (S. aureus RN4220) was “inactive”.

With `Cc1ccccc1OC(=O)c1sc2ccccc2c1Cl` the cytotoxicity call (HSkMC) was “inactive”, the cytotoxicity call (HepG2) was “inactive” and the growth inhibition call (S. aureus RN4220) was “inactive”.

In the case of `COC(=O)C1=CO[C@@H](O[C@@H]2O[C@H](CO)[C@@H](O)[C@H](O)[C@H]2O)[C@H]2[C@@H]1[C@H](OC(C)=O)C[C@]2(C)OC(C)=O`, the cytotoxicity call (HSkMC) is reported as “inactive”, the cytotoxicity call (HepG2) is reported as “inactive” and the growth inhibition call (S. aureus RN4220) is reported as “inactive”.

For `C[C@H]1CN([C@@H](C)CO)C(=O)Cc2cc(NC(=O)CCC(F)(F)F)ccc2O[C@H]1CN(C)Cc1ccc(Cl)c(Cl)c1`, the cytotoxicity call (HSkMC) was “inactive”, the cytotoxicity call (HepG2) was “inactive” and the growth inhibition call (S. aureus RN4220) was “inactive”.

In the case of `C[C@H](CO)N1C[C@H](C)[C@@H](CN(C)S(=O)(=O)c2ccc(Cl)cc2)OCCCC[C@H](C)Oc2ccc(NC(=O)Nc3cccc4ccccc34)cc2C1=O`, the cytotoxicity call (HSkMC) is reported as “inactive”, the cytotoxicity call (HepG2) is reported as “inactive” and the growth inhibition call (S. aureus RN4220) is reported as “inactive”.

For `C[C@@H]1CN([C@H](C)CO)C(=O)c2cccc(NC(=O)Nc3ccc(C(F)(F)F)cc3)c2O[C@H]1CN(C)Cc1ccc(Oc2ccccc2)cc1`, the cytotoxicity call (HSkMC) was “active”, the cytotoxicity call (HepG2) was “inactive” and the growth inhibition call (S. aureus RN4220) was “inactive”.

With `C[C@@H]1CN([C@H](C)CO)C(=O)c2cccc(NC(=O)c3ccc(-c4nccs4)cc3)c2O[C@@H]1CN(C)C(=O)Nc1ccc(C(F)(F)F)cc1` the cytotoxicity call (HSkMC) was “active”, the cytotoxicity call (HepG2) was “inactive” and the growth inhibition call (S. aureus RN4220) was “inactive”.

With `CC(C)(C)S(=O)N1Cc2cc(C(=O)NCc3ccc4c(c3)OCO4)nc(-c3cccc(-c4cccc(F)c4)c3)c2[C@H]1CCO` (some centres undefined) the cytotoxicity call (HSkMC) was “inactive”, the cytotoxicity call (HepG2) was “active” and the growth inhibition call (S. aureus RN4220) was “inactive”.

In the case of `CNC[C@H]1OCCCC[C@H](C)Oc2ccc(NS(=O)(=O)c3cn(C)cn3)cc2C(=O)N([C@@H](C)CO)C[C@H]1C`, the cytotoxicity call (HSkMC) is reported as “inactive”, the cytotoxicity call (HepG2) is reported as “inactive” and the growth inhibition call (S. aureus RN4220) is reported as “inactive”.

For `CC(C)NC(=O)N(C)C[C@@H]1Oc2ccc(NC(=O)Nc3ccc4c(c3)OCO4)cc2C(=O)N([C@@H](C)CO)C[C@H]1C`, the cytotoxicity call (HSkMC) was “inactive”, the cytotoxicity call (HepG2) was “inactive” and the growth inhibition call (S. aureus RN4220) was “inactive”.

`COc1ccc2c3c([nH]c2c1)[C@@H](CO)N(C[C@]13CCN(CC1)Cc1cc(on1)-c1ccccc1)C(=O)Nc1ccc(cc1)F` was tested, and the cytotoxicity call (HSkMC) was “active”, the cytotoxicity call (HepG2) was “inactive” and the growth inhibition call (S. aureus RN4220) was “inactive”.

In the case of `C[C@H](CO)N1C[C@H](C)[C@@H](CN(C)S(=O)(=O)c2ccccc2)Oc2ccc(NC(=O)c3ccncc3)cc2CC1=O`, the cytotoxicity call (HSkMC) is reported as “inactive”, the cytotoxicity call (HepG2) is reported as “inactive” and the growth inhibition call (S. aureus RN4220) is reported as “inactive”.

With `C[C@@H]1CN([C@H](C)CO)C(=O)c2cc(-c3ccc(C(=O)N(C)C)cc3)cnc2O[C@H]1CN(C)C(=O)C1CC1` the cytotoxicity call (HSkMC) was “inactive”, the cytotoxicity call (HepG2) was “inactive” and the growth inhibition call (S. aureus RN4220) was “inactive”.

With `C[C@H](NC(=O)C[C@H]1C[C@@H]2c3cc(NC(=O)Nc4ccc(C(F)(F)F)cc4)ccc3O[C@@H]2[C@H](CO)O1)c1ccccc1` the cytotoxicity call (HSkMC) was “inactive”, the cytotoxicity call (HepG2) was “inactive” and the growth inhibition call (S. aureus RN4220) was “inactive”.

With `COCC(=O)N(C)C[C@@H]1Oc2cc(-c3ccc(OC)cc3)ccc2S(=O)(=O)N([C@H](C)CO)C[C@H]1C` the cytotoxicity call (HSkMC) was “inactive”, the cytotoxicity call (HepG2) was “inactive” and the growth inhibition call (S. aureus RN4220) was “inactive”.

`C[C@H](CO)N1C[C@H](C)[C@@H](CN(C)S(=O)(=O)c2ccc(Cl)cc2)Oc2c(NC(=O)Nc3ccc(C(F)(F)F)cc3)cccc2C1=O` was tested, and the cytotoxicity call (HSkMC) was “inactive”, the cytotoxicity call (HepG2) was “inactive” and the growth inhibition call (S. aureus RN4220) was “inactive”.

With `COc1cc(CCC(=O)O)oc(=O)c1` the cytotoxicity call (HSkMC) was “inactive”, the cytotoxicity call (HepG2) was “inactive” and the growth inhibition call (S. aureus RN4220) was “inactive”.

With `O=C(NCCCN1CCOCC1)c1cccnc1` the cytotoxicity call (HSkMC) was “inactive”, the cytotoxicity call (HepG2) was “inactive” and the growth inhibition call (S. aureus RN4220) was “inactive”.

With `CN(C)CC(=O)N[C@H]1CC[C@H](CCNC(=O)C2CC2)O[C@H]1CO` the cytotoxicity call (HSkMC) was “inactive”, the cytotoxicity call (HepG2) was “inactive” and the growth inhibition call (S. aureus RN4220) was “inactive”.

With `C[C@@H]1CN([C@@H](C)CO)C(=O)Cc2cc(NC(=O)Cc3cn(C)c4ccccc34)ccc2O[C@H]1CN(C)Cc1ccc(C(F)(F)F)cc1` the cytotoxicity call (HSkMC) was “inactive”, the cytotoxicity call (HepG2) was “active” and the growth inhibition call (S. aureus RN4220) was “inactive”.

With `COCC(=O)N1C[C@@H](C)[C@H](OC)CN(C)C(=O)c2ccc(NC(=O)c3ccc(OC)cc3)cc2OC[C@H]1C` the cytotoxicity call (HSkMC) was “inactive”, the cytotoxicity call (HepG2) was “inactive” and the growth inhibition call (S. aureus RN4220) was “inactive”.

In the case of `COc1ccc(NC(=O)Nc2ccc3c(c2)C(=O)N([C@@H](C)CO)C[C@H](C)[C@@H](CN(C)C(=O)Cc2ccccc2)OCCCC[C@H](C)O3)cc1`, the cytotoxicity call (HSkMC) is reported as “inactive”, the cytotoxicity call (HepG2) is reported as “inactive” and the growth inhibition call (S. aureus RN4220) is reported as “inactive”.

`Cc1noc(C)c1NC(=O)Nc1ccc2c(c1)C(=O)N([C@@H](C)CO)C[C@H](C)[C@@H](CN(C)C(=O)Nc1cccc3ccccc13)OCCCC[C@H](C)O2` was tested, and the cytotoxicity call (HSkMC) was “inactive”, the cytotoxicity call (HepG2) was “inactive” and the growth inhibition call (S. aureus RN4220) was “inactive”.

With `C[C@@H]1CCCCO[C@@H](CN(C)Cc2ccc(Cl)c(Cl)c2)[C@H](C)CN([C@@H](C)CO)C(=O)c2cc(NC(=O)CCC(F)(F)F)ccc2O1` the cytotoxicity call (HSkMC) was “inactive”, the cytotoxicity call (HepG2) was “inactive” and the growth inhibition call (S. aureus RN4220) was “inactive”.

With `CC(=O)N[C@@H](CC(C)C)C(=O)O` the cytotoxicity call (HSkMC) was “inactive”, the cytotoxicity call (HepG2) was “inactive” and the growth inhibition call (S. aureus RN4220) was “inactive”.

In the case of `Cc1noc(C)c1NC(=O)N(C)C[C@@H]1Oc2c(NC(=O)Nc3cccc4ccccc34)cccc2C(=O)N([C@@H](C)CO)C[C@H]1C`, the cytotoxicity call (HSkMC) is reported as “inactive”, the cytotoxicity call (HepG2) is reported as “inactive” and the growth inhibition call (S. aureus RN4220) is reported as “inactive”.

`C=C(O)C(=O)O` was tested, and the cytotoxicity call (HSkMC) was “inactive”, the cytotoxicity call (HepG2) was “inactive” and the growth inhibition call (S. aureus RN4220) was “inactive”.

With `COC(=O)C[C@@H]1CC[C@@H]2[C@H](COC[C@H](O)CN2S(=O)(=O)c2ccc(F)cc2)O1` the cytotoxicity call (HSkMC) was “inactive”, the cytotoxicity call (HepG2) was “inactive” and the growth inhibition call (S. aureus RN4220) was “inactive”.

`C[C@H](CO)N1C[C@H](C)[C@H](CN(C)Cc2ccc(C(F)(F)F)cc2)Oc2c(NC(=O)c3nc4ccccc4s3)cccc2C1=O` was tested, and the cytotoxicity call (HSkMC) was “inactive”, the cytotoxicity call (HepG2) was “inactive” and the growth inhibition call (S. aureus RN4220) was “inactive”.
